# The RNAGym collection of RNA variant scans (doi:10.7554/elife.90254)
# Read counts are not given, so values of variants with three or more changes are uncertain.
# B1: OR4K15 (parent)
# chain: GUUAACGGUCAUAGGCCAUGGAAACUAGGAGCACCAUUUCGCUGCCAGUGAAGAAAUGAACAAAGAAAAUCUGGGCCAGGCAGGCAUCAAAAGAAAUAGUCUUGCGCUCAACCAGAAAGUCUGUAAUCAUUUUAAGGGUA
# Variants of: B1
# Assay: self-cleavage, relative activity (ratio to wild type); higher = more cleavage; in vitro, sequencing; the parent is a self-cleaving ribozyme
row,Variant,self-cleavage
1,U26C G74A A111G,0.03
2,A24U A69G U103G U132C,0.01
3,U26C C40A A54G,1.94
4,A24G U43C A82G A92G,0.33
5,U26C A55G A91U U120A,1.51
6,A27G A66G A90G,1.91
7,A27G A96G A134U,0.52
8,A27G U43A A89G,0.53
9,A27G A52U U87C A118G U122C,0.82
10,A24G U43C A82U,0.18
11,A24G U49C U103C U120C,0.68
12,A24G C32U A62G A118G,0.22
13,A24G A82G U87C U120C,0.13
14,A24G U87C A125G,0.33
15,A27G A55U A91G A126G U139C,0.47
16,A24G A64G A66G U72C,0.5
17,A27G U49C A69G A92G,1.39
18,C25U A98G U108C,0.04
19,A24G U49C A140U,1.57
20,C25U U72A A95G,0.35
21,C25A U43C A78G,0.16
22,A27G U57C A67G C76A,0.07
23,A24U G75C U122G,0.19
24,A27G U57C A94G A110G U131C,0.11

row,Variant,self-cleavage
1,A24G A54G C113U,0.24
2,A24G G115U A126U,0.36
3,A24G U37C U102C A118G,2.03
4,U26C U37C G44A,1.74
5,A27G A60G A64U,0.96
6,A27G A60G A64G,0.57
7,A24G U57A U120A,0.62
8,A24G U37C A67U U97C,1.49
9,A24G A78G A95G,0.16
10,A27G A33G A89G A118G,0.33
11,A24U U70C U103G,0.01
12,A24G A54G U72A,0.05
13,U26C A89G A94G U108C,0.03
14,A27G U39C A68G,1.15
15,A24U U49C C77U,0.61
16,C25U A30U A55G A62G U103C,0.72
17,A24U A36G A56G,0.57
18,A24G U39C A51U U122C,0.73
19,A24G A91G U132C,0.44
20,U26C A59G A94G U102C G106A U131C,0
21,A27G A69G A116G,0.5
22,U26A A30G A66G,0.87
23,U26C A62G G75A A92G,0.18
24,A24G A95G A135C,1.9

row,Variant,self-cleavage
1,A24U A94G A110G,0.13
2,A24G U72C A89G U122A,0.16
3,A24G U57C A78G A94G,0.38
4,A27G A91C U102C,1.09
5,A27G A95G U103C U131C,1.24
6,A24G U49C A95G,1.12
7,U26C A47U A63G,1.22
8,A27G A64G A67G,1.18
9,A24G U43C A60G C128A,0.45
10,A24G U57C A116G,0.07
11,A27G A54G U87C U103C,0.77
12,A24G A59U A95U,1.4
13,A24G A125G U127C,0.33
14,U26C A30U A54G A98U U122A,1.05
15,U26C U49C A92C,1.55
16,A27G A30G A47U A91G,0.89
17,A27G A60G A117U U130C,0.82
18,A24G A59G A96G,1.22
19,A24G A62G A69G A134G,1.43
20,A27G A64G G65A,0.73
21,A24G U57C A78U,0.24
22,A24G G44A U97C U100C A111G,0.05
23,A24G U43C U72A G79U,0.18
24,A27G A64G A66G U122C,1.44

row,Variant,self-cleavage
1,A27G A30G A91G,0.81
2,A24G A92U U108C,0.04
3,U26G A62G A90G,1.27
4,A27G G58A A94G,0.92
5,U26C A66G A67G U102A,0.21
6,A24G G29A A30G A140G,1.42
7,A24U A66U U122C,0.96
8,A24G U49A A82G,0.58
9,A24G G44C A94G,1.6
10,U26C G41A A67G A95G,1.73
11,A24G A90G U139A,0.89
12,C25U G28A A111G,0.04
13,A27G A110G A114G A116G U139C,0.02
14,A27G A68G U70C A90G,0.85
15,A24G A66U A95G U130C,0.78
16,A24U U57A A62G A117G,0.46
17,U26C A54G A67G A92G,2.11
18,U26C G29U A82U U100C,0.61
19,C25U U70C U131C,0.44
20,U26C U39A A91G U120C,0.59
21,A24U U43C U49A A62G A86G U124C,0.52
22,A27G C46U A51G,0.6
23,A24U U72C A94G A98G,0.09
24,U26A G75U A91G U100C,0.15

row,Variant,self-cleavage
1,A27G A68U A82G U127C U130C,0.15
2,A24G A69G U127C,0.45
3,A24G A94G U124A U130C,0.24
4,A24G A56G A59G U103C,0.94
5,A24U A94G U108C,0
6,A27G A78G U139C,0.28
7,A24G A62G U87C,0.43
8,C25U U39C U103C,0.93
9,U26C A64G A98U A117U,1.24
10,A27G A47G A52G,0.77
11,A24G U39C U43C U131C,1.32
12,U26C A92G C128A,1.42
13,U26C A55G A117C,0.41
14,A24U A54G A60G A89G,0.33
15,A24G A96G U120C,0.79
16,U26C A68U A98C,1.56
17,A24U C35A A51G U87C A110G,0.05
18,A24U A67G U87C,1.13
19,A24G A55G A126G A135U,0.99
20,U26G A51U A60G A111G,0.01
21,C25U U70C U103C,0.39
22,U26C A94G A118G,1.81
23,U26A A27G U87C,1.03
24,U26A A36U U49C,1.5

row,Variant,self-cleavage
1,U26C G93A U131C A135G,0.6
2,A27G A60U U70C,0.7
3,C25A A54G A55C A64U A91G,0.61
4,A24G A95G U127C,1.28
5,A24G G79A A94G A114U A125G,0.01
6,A24G U38C A51G A129U A135U,0.25
7,A24G U87C A95G U131C,0.51
8,A27G A78G A94G,0.32
9,U26C A54G U87A,0.77
10,C25A U72C U100C U127A A135U,0.38
11,U26C A54G U122C,1.12
12,U26C A52U U100C,2.31
13,A24U C40A A94G,1.53
14,A24G A94G U127C,1.21
15,A24G A62C A67G,0.89
16,U26C A60G C107U,0.02
17,A24G A129U U132A,1.07
18,U26A A92G U130C A134U,0.86
19,A27G A60G A62U,1.44
20,A24G U70A A86G,0.43
21,A24G U57C A91G U127C U130C G137A,0.88
22,A24G U43A A64G,1.37
23,A24G A55U A82G A111G,0.04
24,A27G U38C A63G A67G U97A,0.5

row,Variant,self-cleavage
1,A24U A33G A94G A125G A140G,0.19
2,A24G A66G A68G A111G,0.03
3,A24G A92G U108C U120G,0.03
4,A24G A55G U72A A118G,0.03
5,A24G U43G A69G A91G U131C,1.36
6,U26C A60G A96U A135G,1.42
7,A27G A54G A55G U87A A111G U130C,0.06
8,A24G U37C A117G,1.51
9,A24G U26C A59G,0.88
10,C25U C42A G58A U100C A135G,1.48
11,A24G U87C A114C A135G,0.03
12,A24G U43A A95G,1.55
13,A24U C45U A52U A66G A90G,1.63
14,A27G U49C A66G U127C U133C,0.37
15,C25U A60G A82G U130C,0.26
16,A24G U38C C105G A126G U130C,0
17,A24G A66G A69G,1.43
18,A27G A56G G75C,0.14
19,U26C U37C A64G A66G U102C A117G,1.26
20,A24U A33G A95G A118U,1.4
21,A27G A62U A95G A116C U124C,0.06
22,A24G A66U U127A,0.87
23,U26C A82U A129G,0.09
